# PubChem BioAssay AID686971 (National Center for Advancing Translational Sciences (NCATS), 2013)
# The campaign covered roughly 360,000 compounds. About 7,500 (2.1%) were called active. The shares of active, inactive and inconclusive entries below differ from those in the screen. The call rests on the fitted dose curve; in most records, active means well fitted cell-killing curve with a large enough effect; inconclusive means small, poorly fitted or top-dose-only effect, or effect the other way, or another doubt; inactive means no such curve, though single readings can be large or run the other way. No potency is given beside an inconclusive call; the fits are too rough.
# Test: qHTS for induction of synthetic lethality in tumor cells producing 2HG: qHTS for the HT-1080-IDH1KD cell line
# Conditions: HT-1080 IDH1 knockdown viability, ATP luminescence, 48 h; series mostly up to 46.1 µM
# In short: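 Viability of IDH1-knockdown HT-1080 fibrosarcoma cells was assessed by CellTiter-Glo after 48 h at 37 °C with titrated compound; concentration-effect curves were classified by fit quality and response size.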
# Potency means the concentration at half of the fitted maximal effect; tags describe the fitted curve by direction and shape.
row,Compound,Potency
1,Cc1cc(NC(=O)C(Cl)c2ccccc2)no1 (stereo unspecified),"inconclusive [cytotoxic, single point]"
2,COc1ccc(/C=C/C(O)=C2/C(=O)N(C)C3(C)CC2c2ccccc2O3)cc1 (stereo unspecified),"inconclusive [cytotoxic, single point]"
3,N#CC1=C(N)Oc2n[nH]c(-c3ccccc3)c2C1c1cccnc1 (stereo unspecified),inactive
4,O=C(CSc1c2c(nc3cc(Cl)ccc13)CCCC2)NCCCN1CCOCC1,"inconclusive [cytotoxic, single point]"
5,CCCc1nc2c(sc3nc4c(cc32)COC(C)(C)C4)c(=O)n1Cc1ccco1,"inconclusive [cytotoxic, single point]"
6,COc1cccc(/C=C2/SC(=S)N(CCCC(=O)Nc3ccc(O)cc3)C2=O)c1,"inconclusive [cytotoxic, partial curve]"
7,CCOc1cc(-c2nc(-c3ccccc3)c(-c3cc([N+](=O)[O-])ccc3C)[nH]2)ccc1O,inactive
8,O=C(Cn1cnc2c(nnn2Cc2ccc(F)cc2)c1=O)NCc1ccc(F)cc1,active: 18.4 µM
9,CC1CCc2[nH]c3ccc(C(=O)N(C)CC(=O)Nc4ccc(F)cc4)cc3c2C1 (stereo unspecified),"inconclusive [cytotoxic, single point]"
10,Cc1ccc(S(=O)(=O)Nc2cc(C)c(O)c(Sc3n[nH]c(C)n3)c2)cc1,"inconclusive [cytotoxic, partial curve]"
11,COc1ccc(-c2csc(C(O)c3ccc(F)c(F)c3)n2)cc1 (stereo unspecified),"inconclusive [cytotoxic, single point]"
12,Cc1cccc(CN2CCc3c(OCC(=O)N4CCCc5ccccc54)cccc3C2=O)c1,"inconclusive [cytotoxic, single point]"
13,Cc1[nH]nc2ncc(C(=O)c3cc(F)ccc3O)cc12,inactive
14,CN(C)c1ccc(-c2ccnc3c2CC(C)(C(=O)NCc2ccccc2)O3)cc1 (stereo unspecified),"inconclusive [cytotoxic, full curve, poor fit]"
15,O=C(O)c1ccc(N/N=C/c2ccc(-c3cc(Cl)ccc3Cl)o2)cc1,active: 16.4 µM
16,CC(C)c1ccc(C(=O)N2CCCN(C(=O)c3ccc(C(C)C)cc3)CC2)cc1,inactive
17,CC(C)(C)C(=O)N1c2ccccc2CCc2ccccc21,inactive
18,CCc1nnc2n1N=C(c1ccc(OC)cc1)CS2,"inconclusive [cytotoxic, partial curve]"
19,COc1cc(OC)c(NC2=CC(=O)C(=O)c3ccccc32)cc1Cl,active: 8.2 µM
20,O=C(NCc1ccncc1)[C@@H]1CCCN1C(=O)[C@@H]1CCCN1C(=O)c1ccccc1,"inconclusive [cytotoxic, single point]"
21,CCOc1cc(/C=C/c2cccc[n+]2C)ccc1O,inactive
22,Cc1cc(C)cc(NC2=NC3(CCCCC3)N=C(N)N2)c1,active: 4.61 µM
23,Cn1c(C(=O)OCC(=O)NCc2ccco2)cc2sccc21,"inconclusive [cytotoxic, single point]"

row,Compound,Potency
1,Cc1cccc(C)c1Nc1c(-c2ccsc2)nc2ncccn12,"inconclusive [cytotoxic, partial curve]"
2,CCn1c(SCC(=O)NCCCN2CCCC2=O)nnc1-c1cccc(C)c1,inactive
3,COc1ccc(Br)cc1Cn1nnc(C(=O)Nc2ccc3c(c2)OCCO3)c1N,"inconclusive [cytotoxic, single point]"
4,Cc1cccc(C(=O)NC(=S)NNC(=O)c2ccc(Cl)cc2)c1,active: 8.2 µM
5,Cn1c(=NC(=O)CN2C(=O)C3CC=CCC3C2=O)sc2ccccc21 (stereo unspecified),inactive
6,O=c1c2cc(N3CCOCC3)ccc2[nH]c(=S)n1Cc1ccccc1Cl,inactive
7,COc1cc(-c2noc(C)c2/C=C/c2ccc(C(=O)O)cc2)cc(OC)c1OC,active: 18.4 µM
8,COc1ccc(OCC(=O)Nc2cccc(-c3nc4ccccc4[nH]3)c2)cc1,"inconclusive [cytotoxic, single point]"
9,CCCc1ccc(Oc2c(-c3ccc(O)c(C)c3O)n[nH]c2C)cc1,"inconclusive [cytotoxic, single point]"
10,COc1cccc(CN(C)CC(=O)Nc2ccccc2C(C)C)c1,inactive
11,c1ccc(Nc2nc(N3CCCCC3)nc(N3CCNCC3)n2)cc1,"inconclusive [cytotoxic, single point]"
12,OC(c1ccc(Cl)c(F)c1)c1ncc(-c2ccccc2Cl)[nH]1 (stereo unspecified),"inconclusive [cytotoxic, partial curve, poor fit]"
13,Cn1nc(-c2ccccc2)c(CSc2cccc(Cl)c2)c1Cl,"inconclusive [cytotoxic, single point]"
14,S=C(NCc1ccccc1)NNc1ccccc1,"inconclusive [cytotoxic, partial curve]"
15,CN(C)S(=O)(=O)c1ccc(N2CCCC2)c(C(=O)Nc2nc3ccccc3s2)c1,"inconclusive [cytotoxic, partial curve, poor fit]"
16,Cc1ccc(CCNC(=O)c2cc(-c3ccncc3)nc3ccc(S(=O)(=O)N4CCOCC4)cc23)cc1,inactive
17,Cc1ccc(NC(=O)CSc2nnc(-c3ccncc3)o2)cc1,"inconclusive [rising, single point]"
18,Cc1ccc(C(=O)CC(C(=O)O)P(=O)(c2ccccc2)c2ccccc2)cc1 (stereo unspecified),"inconclusive [rising, partial curve]"
19,O=C(Nc1cccc(C(F)(F)F)c1)NC1CCCCC1,"inconclusive [cytotoxic, single point]"
20,CCc1ccc(OCC(=O)NNC(=S)NC(=O)C2CC2)c(Br)c1,"inconclusive [cytotoxic, partial curve]"
21,CC1CCc2sc(C(=O)N/N=C/c3ccc(O)cc3)cc2C1 (stereo unspecified),"inconclusive [cytotoxic, single point]"
22,Cc1cc(C(=O)COC(=O)CCc2nc3ccccc3c(=O)[nH]2)c(C)n1CC1CCCO1 (stereo unspecified),inactive
23,Cc1cc2nc(C(C)(C)C)c(Cc3cccc(Cl)c3)n2c(C)c1Br,inactive
